Experimental data reported in PubChem BioAssay AID1117361 (Southern Research Institute, 2015).
Not every entry of the source has a single result; some have several. They are shown here; other results are not. The source may hold further records. Results that share an entry are repeats (runs, samples, wells, individuals or studies). Brackets tell where a record comes from. The letters are not those of the source and start again with each entry.

Target: Protein Tat (Human immunodeficiency virus type 1 group M subtype B (isolate HXB2)) (UniProt P04608)
Test: inhibitors of Tat binding to TAR RNA, dose response, counter-screen for Vif-APOBEC3G degradation inhibitor project, biochemical, fluorescence polarization, FAM-labeled TAR RNA (AID 1117361)

Chain of UniProt P04608 (P04608 whole entry, looked up): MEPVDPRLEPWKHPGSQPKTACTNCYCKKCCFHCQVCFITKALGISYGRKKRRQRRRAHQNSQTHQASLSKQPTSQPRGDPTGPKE

Q: Clc1ccccc1CSc1nnc(-c2ccco2)c(-c2ccco2)n1 was tested. Which IC50 did it give?
A: 2.08 µM [sample A] and 99 µM [sample B]
